{"source": "PubChem BioAssay AID2546", "about": "(National Center for Advancing Translational Sciences (NCATS), 2010)", "note": "Out of some 310,000 compounds screened, about 11,000 (3.5%) were called active. This list was built around the results that the source calls inconclusive (neither active nor inactive); the mix of calls is not that of the screen. Calls come from the whole dose curve; as a rule, active = well fitted inhibition curve with a large enough effect; inconclusive = small, poorly fitted or top-dose-only effect, or effect the other way; inactive = flat fitted curve, though single readings scatter. Potencies of inconclusive entries are left out as doubtful fits. % is set by controls: 0 for no effect and ±100 for the full control effect; potency is the fitted concentration of half-maximal effect; tags give direction and shape of the fitted curve."}
{"test": "VP16 counterscreen qHTS for inhibitors of ROR gamma transcriptional activity;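 note: Gal4-VP16 expression switched on by copper sulfate through the metallothionein promoter; nearly all actives have a fitted effect of over 50% in size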", "settings": "Drosophila S2 Gal4-VP16 UAS-luciferase, luminescence, 20 h; activity, negative = inhibition: at 53.6 µM (top of the series)"}
{"molecule": "CC(=O)Nc1ccc(Nc2nc(-c3ccccc3)nc3ccccc23)cc1", "Potency": "active: 12.6 µM"}
{"molecule": "Cc1ccc(NCc2ccc(O)c3ncccc23)cc1", "Potency": "active: 1.78 µM"}
{"molecule": "NNC(=S)Nc1c(F)cc(F)cc1Br", "Potency": "inconclusive [inhibitor, single point]"}
{"molecule": "N#Cc1ccccc1OCC(=O)NC(=O)NCc1ccco1", "Potency": "inactive"}
{"molecule": "Brc1ccc(C2=CC(c3ccco3)n3ncnc3N2)cc1", "note": "(centres undefined)", "Potency": "inconclusive [inhibitor, single point]"}
{"molecule": "Cc1c(C(=O)N(C)Cc2ccccc2)oc2ccc(S(=O)(=O)N3CCCC3)cc12", "Potency": "inconclusive [inhibitor, single point]"}
{"molecule": "COC(=O)c1ccc(COc2ccc(NC(C)=O)cc2)o1", "Potency": "inconclusive [activator, single point]"}
{"molecule": "CCc1ccc(CNC(=O)c2ccc3c(c2)NC(=O)C(N2CCOCC2)S3)cc1", "note": "(centres undefined)", "Potency": "inactive"}
{"molecule": "Cc1occc1C(=O)Nc1cccc(C(=O)O)c1", "Potency": "inconclusive [inhibitor, full curve, poor fit]"}
{"molecule": "O=C(CC1CC2CCC1C2)NCCc1ccc(Cl)cc1", "note": "(centres undefined)", "Potency": "inconclusive [activator, single point]"}
{"molecule": "COc1ccc(C)cc1Nc1n[n+](-c2ccccc2)c(-c2cccc(Cl)c2Cl)s1", "Potency": "inconclusive [inhibitor, single point]"}
{"molecule": "CCN(CC)c1ccc2c(-c3ccc(S(=O)(=O)O)cc3S(=O)(=O)[O-])c3ccc(=[N+](CC)CC)cc-3oc2c1", "Potency": "inconclusive [inhibitor, partial curve]"}
{"molecule": "COc1cc(NC(=O)c2cccnc2SC)cc(OC)c1OC", "Potency": "inactive"}
{"molecule": "CCOC(=O)C1CCCN(C(=S)Nc2cccc(Cl)c2C)C1", "note": "(centres undefined)", "Potency": "inconclusive [inhibitor, single point]"}
{"molecule": "c1csc(CNc2nc(-c3ccc4c(c3)OCO4)nc3ccccc23)c1", "Potency": "inconclusive [inhibitor, single point]"}
{"molecule": "CCc1ccccc1NC(=S)N(Cc1ccco1)C(C)c1cccs1", "note": "(centres undefined)", "activity, negative = inhibition": "inactive: -7.21% [at 10 µM]"}
{"molecule": "Nc1nc(NCc2ccco2)nc(N2CCCC2)c1[N+](=O)[O-]", "Potency": "inactive"}
{"molecule": "CCNc1ccc(C(=O)N/N=C/c2c(C)nn(-c3ccccc3)c2N2CCCC2)cc1[N+](=O)[O-]", "Potency": "inconclusive [activator, single point]"}
{"molecule": "S=C(NCC(c1cccnc1)N1CCOCC1)NC1CCCCC1", "note": "(centres undefined)", "Potency": "inactive"}
{"molecule": "COc1ccccc1NC(=S)NC(=O)CC(C)C", "Potency": "active: 12.6 µM"}
{"molecule": "S=c1[nH]nc(CCc2ccccc2)n1-c1ccc(Cl)cc1", "Potency": "inconclusive [inhibitor, partial curve]"}
{"molecule": "CCN1CCC(C(N)=O)CC1", "Potency": "inactive"}
{"molecule": "O=c1c(Cl)c(N2CCCCC2)cnn1-c1nc2ccccc2[nH]1", "Potency": "active: 1.26 µM"}
{"molecule": "COc1ccc(/C=C/c2nc(N)nc(-c3ccccc3O)n2)cc1OC", "Potency": "inconclusive [inhibitor, single point]"}
{"molecule": "O=C(O)CC12CC3CC(C1)CC(n1cncn1)(C3)C2", "activity, negative = inhibition": "inactive: -5.37% [at 10 µM]"}
{"molecule": "O=C(N/N=C/c1cccs1)C1COc2ccccc2O1", "note": "(centres undefined)", "Potency": "inconclusive [inhibitor, single point]"}
{"molecule": "CCCC(=O)N1CCN(c2nnc(-c3ccccc3)c3ccccc23)CC1", "Potency": "inactive"}
{"molecule": "CC1(C)N=C(SCC(=O)Nc2ccc(Cl)cc2)C(c2ccccc2)=N1", "Potency": "inactive"}
{"molecule": "CCOC(=O)c1c(N)c(C#N)c2n1CCCC2", "Potency": "inactive"}
{"molecule": "CCC(NC(=O)c1ccc2nc(Cc3ccc(OC)cc3)oc2c1)c1ccncc1", "note": "(centres undefined)", "Potency": "inconclusive [inhibitor, single point]"}
{"molecule": "COC(=O)C(C(C)=O)C1=C/C(=N\\S(=O)(=O)c2ccc(C)cc2)c2ccccc2C1=O", "note": "(centres undefined)", "Potency": "inconclusive [inhibitor, single point]"}
{"molecule": "O=C(N/N=C1/CC2C=CCC12)c1ccc(Br)o1", "note": "(centres undefined)", "Potency": "inconclusive [inhibitor, single point]"}
{"molecule": "COc1ccccc1-c1cc(C(F)(F)F)nc(S(=O)(=O)CCCC(=O)Nc2cccnc2Cl)n1", "Potency": "active: 8.91 µM"}
{"molecule": "COC(=O)N/N=C/c1cn(CCOc2ccccc2OC)c2ccccc12", "Potency": "inactive"}
{"molecule": "O=C(O)CSc1nnc(-c2ccc3c(c2)OCO3)o1", "Potency": "inconclusive [inhibitor, single point]"}
{"molecule": "O=C(NCc1ccccn1)C(=O)NCC1OCCN1S(=O)(=O)c1ccc(Br)cc1", "note": "(centres undefined)", "Potency": "active: 25.1 µM"}
{"molecule": "CCCC(Oc1ccc(Br)cc1)c1nc2c3cc(OC)c(OC)cc3nc(=S)n2[nH]1", "note": "(centres undefined)", "Potency": "active: 3.55 µM"}
{"molecule": "CCOC(=O)c1sc(Nc2ccc(C)cc2C)nc1C", "Potency": "inconclusive [inhibitor, single point]"}
{"molecule": "Cc1ccccc1OCC(O)Cn1c(=N)n(CCN2CCOCC2)c2ccccc21", "note": "(centres undefined)", "Potency": "inactive"}
{"molecule": "O=C(N/N=C/c1ccccc1O)C1CC(=O)N(c2ccc(F)cc2)C1", "note": "(centres undefined)", "Potency": "active: 6.31 µM"}
{"molecule": "CSCCC(NS(=O)(=O)c1ccc(C)cc1)C(=O)NNC(=O)c1csc(N2CCOCC2)n1", "note": "(centres undefined)", "Potency": "inactive"}
{"molecule": "Cc1ccc(S(=O)(=O)N2CCN(CC(=O)N/N=C/c3ccco3)CC2)cc1", "Potency": "inconclusive [activator, single point]"}
{"molecule": "O=C(NNC(=O)C12CC3CC(CC(C3)C1)C2)c1cnccn1", "Potency": "inconclusive [inhibitor, partial curve, poor fit]"}
{"molecule": "O=C(Cc1cccs1)NCCSc1c(-c2ccc(Cl)cc2)[nH]c2ccccc12", "Potency": "inconclusive [inhibitor, partial curve, poor fit]"}
{"molecule": "Cc1cccc(NC(=S)N(C)Cc2cn(C)c3ccccc23)c1", "Potency": "inconclusive [inhibitor, partial curve, poor fit]"}
{"molecule": "COc1cc(-c2cc(C(=O)Nc3cccc(C(C)=O)c3)c3ccccc3n2)cc(OC)c1OC", "Potency": "inactive"}
{"molecule": "O=C(N/N=C/c1cccnc1)c1cccc(F)c1", "Potency": "inconclusive [activator, single point]"}
{"molecule": "O=[N+]([O-])c1cccc(-c2ccc(/C=N/NC(=S)Nc3cccc(F)c3)o2)c1", "Potency": "active: 7.08 µM"}
{"molecule": "CCOc1ccccc1N(C(=O)c1ccccc1Cl)C1=NC(C)(C)CS1", "Potency": "inactive"}
